Assay results from the supplement of paper PMC4967469.
By IC50 is meant the dose at which the fit gives 50% viability; a fit beyond the top or the lowest dose is shown as a bound at that dose. The AUC spans the tested range (256-fold, ending at the top dose) of the same fit; the more sensitive the line, the further below 1. The top dose, if marked as inferred, is not printed in the source and was worked back from the curve model.

Columns and labels:
[1] = compound: CN(C)CCOc1ccc(-c2nc(-c3ccncc3)c(-c3ccc4c(c3)CC/C4=N\O)[nH]2)cc1 [SB590885]; experiment: Viability of human cancer cell lines after 72 h of drug (GDSC screen); conditions: top dose 5 µM; top dose inferred
Description: (§1)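 Human cancer cell lines in 384-well plates, medium with 10% serum, drug for 72 h over a 256-fold dose range (nine 2-fold or five 4-fold steps up to the top dose). Adherent lines were fixed and stained with the nucleic acid dye Syto60, suspension lines read with resazurin; signal relative to control wells, capped at 0 and 100%. One two-parameter sigmoid per drug and line, fitted in a mixed model over all curves with the slope shared within a line.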

[2] = compound: CCN(CC)CCCCNc1ncc2cc(-c3cc(OC)cc(OC)c3)c(NC(=O)NC(C)(C)C)nc2n1 [PD-173074]; experiment: as above; conditions: top dose 2 µM; top dose inferred
Description: as §1

| Cell Line | AUC [1] | IC50 [1] [nM] | AUC [2] | IC50 [2] [nM] |
| --- | --- | --- | --- | --- |
| RCC-ER (kidney, adherent) | 0.986 | > 5000 | 0.977 | > 2000 |
| RCC-FG2 (kidney, adherent) | 0.982 | > 5000 | 0.93 | > 2000 |
| RCC-JF (kidney, adherent) | 0.983 | > 5000 | 0.982 | > 2000 |
| RCC-JW (kidney, adherent) | 0.986 | > 5000 | 0.984 | > 2000 |
| RCC-MF (kidney, adherent) | 0.953 | > 5000 | 0.98 | > 2000 |
| RCH-ACV (B-cell leukaemia, suspension) | 0.992 | > 5000 | 0.943 | > 2000 |
| RCM-1 (large intestine, adherent) | 0.954 | > 5000 | 0.981 | > 2000 |
| RERF-LC-KJ (lung adenocarcinoma, adherent) | 0.987 | > 5000 | 0.982 | > 2000 |
| RERF-LC-MS (lung adenocarcinoma, adherent) | 0.987 | > 5000 | 0.987 | > 2000 |
| RERF-LC-Sq1 (lung squamous cell carcinoma, adherent) | 0.979 | > 5000 | 0.941 | > 2000 |
| RH-18 (rhabdomyosarcoma, adherent) | 0.985 | > 5000 | 0.885 | > 2000 |
| RH-41 (rhabdomyosarcoma, adherent) | 0.991 | > 5000 | 0.951 | > 2000 |
| RKN (ovary, adherent) | 0.864 | 4780 | 0.932 | > 2000 |
| RO82-W-1 (thyroid, adherent) | 0.983 | > 5000 | 0.818 | 1550 |
| RPMI-2650 (head and neck, adherent) | 0.967 | > 5000 | 0.959 | > 2000 |
| RPMI-7951 (melanoma, adherent) | 0.984 | > 5000 | 0.987 | > 2000 |
| RT4 (bladder, adherent) | 0.976 | > 5000 | 0.945 | > 2000 |
| RVH-421 (melanoma, adherent) | 0.559 | 481 | 0.979 | > 2000 |
| SAS (head and neck, adherent) | 0.982 | > 5000 | 0.967 | > 2000 |
| SAT (head and neck, adherent) | 0.951 | > 5000 | 0.889 | > 2000 |
| SBC-3 (small cell lung carcinoma, adherent) | 0.988 | > 5000 | 0.846 | 1260 |
| SBC-5 (small cell lung carcinoma, adherent) | 0.993 | > 5000 | 0.991 | > 2000 |
| SCC90 (head and neck, adherent) | 0.981 | > 5000 | 0.977 | > 2000 |
| SCC-9 (head and neck, adherent) | 0.94 | > 5000 | 0.947 | > 2000 |
| SCC-25 (head and neck, adherent) | 0.984 | > 5000 | 0.982 | > 2000 |

| Cell Line | AUC [1] | IC50 [1] [nM] | AUC [2] | IC50 [2] [nM] |
| --- | --- | --- | --- | --- |
| SF295 (glioma, adherent) | 0.95 | > 5000 | 0.955 | > 2000 |
| SISO (cervix, adherent) | 0.988 | > 5000 | 0.988 | > 2000 |
| SJRH30 (rhabdomyosarcoma, adherent) | 0.979 | > 5000 | 0.959 | > 2000 |
| SK-CO-1 (large intestine, adherent) | 0.891 | > 5000 | 0.989 | > 2000 |
| SK-GT-2 (stomach, adherent) | 0.986 | > 5000 | 0.986 | > 2000 |
| SK-GT-4 (oesophagus, adherent) | 0.947 | > 5000 | 0.957 | > 2000 |
| SK-HEP-1 (liver, adherent) | 0.949 | > 5000 | 0.989 | > 2000 |
| SK-LU-1 (lung adenocarcinoma, adherent) | 0.979 | > 5000 | 0.913 | > 2000 |
| SK-MEL-3 (melanoma, adherent) | 0.784 | 2500 | 0.984 | > 2000 |
| SK-MEL-5 (melanoma, adherent) | 0.743 | 1850 | 0.981 | > 2000 |
| SK-MEL-31 (melanoma, adherent) | 0.985 | > 5000 | 0.985 | > 2000 |
| SK-MES-1 (lung squamous cell carcinoma, adherent) | 0.979 | > 5000 | 0.972 | > 2000 |
| SK-MG-1 (glioma, adherent) | 0.956 | > 5000 | 0.984 | > 2000 |
| SK-N-AS (neuroblastoma, adherent) | 0.949 | > 5000 | 0.982 | > 2000 |
| SK-N-SH (neuroblastoma, adherent) | 0.986 | > 5000 | 0.974 | > 2000 |
| SK-OV-3 (ovary, adherent) | 0.981 | > 5000 | 0.981 | > 2000 |
| SKG-IIIa (cervix, adherent) | 0.983 | > 5000 | 0.983 | > 2000 |
| SKN (uterus, adherent) | 0.974 | > 5000 | 0.861 | > 2000 |
| SKN-3 (head and neck, adherent) | 0.947 | > 5000 | 0.913 | > 2000 |
| SNU-61 (large intestine, adherent) | 0.983 | > 5000 | 0.983 | > 2000 |
| SNU-81 (large intestine, adherent) | 0.974 | > 5000 | 0.978 | > 2000 |
| SNU-182 (liver, adherent) | 0.986 | > 5000 | 0.986 | > 2000 |
| SNU-387 (liver, adherent) | 0.984 | > 5000 | 0.984 | > 2000 |
| SNU-407 (large intestine, adherent) | 0.983 | > 5000 | 0.983 | > 2000 |
| SNU-423 (liver, adherent) | 0.983 | > 5000 | 0.982 | > 2000 |

| Cell Line | AUC [1] | IC50 [1] [nM] | AUC [2] | IC50 [2] [nM] |
| --- | --- | --- | --- | --- |
| SNU-449 (liver, adherent) | 0.986 | > 5000 | 0.978 | > 2000 |
| SNU-C2B (large intestine, adherent) | 0.979 | > 5000 | 0.976 | > 2000 |
| SNU-C5 (large intestine, adherent) | 0.962 | > 5000 | 0.986 | > 2000 |
| STS-0421 (soft tissue, adherent) | 0.983 | > 5000 | 0.484 | 113 |
| SU-DHL-5 (B-cell lymphoma, suspension) | 0.983 | > 5000 | 0.99 | > 2000 |
| SU-DHL-10 (B-cell lymphoma, suspension) | 0.996 | > 5000 | 0.997 | > 2000 |
| SUIT-2 (pancreas, adherent) | 0.983 | > 5000 | 0.954 | > 2000 |
| SUP-B8 (B-cell leukaemia, suspension) | 0.989 | > 5000 | 0.955 | > 2000 |
| SW48 (large intestine, adherent) | 0.987 | > 5000 | 0.976 | > 2000 |
| SW620 (large intestine, adherent) | 0.99 | > 5000 | 0.99 | > 2000 |
| SW626 (ovary, adherent) | 0.978 | > 5000 | 0.984 | > 2000 |
| SW756 (cervix, adherent) | 0.983 | > 5000 | 0.983 | > 2000 |
| SW780 (bladder, adherent) | 0.983 | > 5000 | 0.871 | > 2000 |
| SW900 (lung squamous cell carcinoma, adherent) | 0.983 | > 5000 | 0.954 | > 2000 |
| SW948 (large intestine, adherent) | 0.894 | > 5000 | 0.918 | > 2000 |
| SW982 (soft tissue, adherent) | 0.891 | > 5000 | 0.982 | > 2000 |
| SW1271 (small cell lung carcinoma, adherent) | 0.906 | > 5000 | 0.969 | > 2000 |
| SW1417 (large intestine, adherent) | 0.969 | > 5000 | 0.986 | > 2000 |
| SW1573 (lung adenocarcinoma, adherent) | 0.959 | > 5000 | 0.97 | > 2000 |
| SW1710 (bladder, adherent) | 0.973 | > 5000 | 0.961 | > 2000 |
| SW1783 (glioma, adherent) | 0.987 | > 5000 | 0.983 | > 2000 |
| Saos-2 (osteosarcoma, adherent) | 0.952 | > 5000 | 0.976 | > 2000 |
| SiHa (cervix, adherent) | 0.987 | > 5000 | 0.986 | > 2000 |
| T47D (breast, adherent) | 0.978 | > 5000 | 0.977 | > 2000 |
| T84 (large intestine, adherent) | 0.989 | > 5000 | 0.989 | > 2000 |

| Cell Line | AUC [1] | IC50 [1] [nM] | AUC [2] | IC50 [2] [nM] |
| --- | --- | --- | --- | --- |
| T98G (glioma, adherent) | 0.99 | > 5000 | 0.969 | > 2000 |
| T-T (oesophagus, adherent) | 0.966 | > 5000 | 0.987 | > 2000 |
| TCCSUP (bladder, adherent) | 0.984 | > 5000 | 0.956 | > 2000 |
| TE-11 (oesophagus, adherent) | 0.99 | > 5000 | 0.988 | > 2000 |
| TGBC11TKB (stomach, adherent) | 0.992 | > 5000 | 0.991 | > 2000 |
| TMK-1 (stomach, adherent) | 0.986 | > 5000 | 0.986 | > 2000 |
| TOV-21G (ovary, adherent) | 0.962 | > 5000 | 0.958 | > 2000 |
| TOV-112D (ovary, adherent) | 0.946 | > 5000 | 0.927 | > 2000 |
| TT2609-C02 (thyroid, adherent) | 0.916 | > 5000 | 0.96 | > 2000 |
| TT (thyroid, adherent) | 0.974 | > 5000 | 0.979 | > 2000 |
| TYK-nu (ovary, adherent) | 0.772 | 2060 | 0.954 | > 2000 |
| U031 (kidney, adherent) | 0.981 | > 5000 | 0.95 | > 2000 |
| U-118-MG (glioma, adherent) | 0.986 | > 5000 | 0.985 | > 2000 |
| U-266 (myeloma, semi-adherent) | 0.952 | > 5000 | 0.973 | > 2000 |
| UACC-62 (melanoma, adherent) | 0.983 | > 5000 | 0.986 | > 2000 |
| UWB1.289 (ovary, adherent) | 0.979 | > 5000 | 0.972 | > 2000 |
| VM-CUB-1 (bladder, adherent) | 0.976 | > 5000 | 0.985 | > 2000 |
| VMRC-LCD (lung adenocarcinoma, adherent) | 0.99 | > 5000 | 0.992 | > 2000 |
| VMRC-RCZ (kidney, adherent) | 0.984 | > 5000 | 0.956 | > 2000 |
| WM35 (melanoma, adherent) | 0.81 | 2660 | 0.984 | > 2000 |
| WM793B (melanoma, adherent) | 0.881 | > 5000 | 0.984 | > 2000 |
| WM1552C (melanoma, adherent) | 0.936 | > 5000 | 0.988 | > 2000 |
| WM-115 (melanoma, adherent) | 0.625 | 746 | 0.941 | > 2000 |
| YAPC (pancreas, adherent) | 0.982 | > 5000 | 0.984 | > 2000 |
